Drawing on PubChem BioAssay AID485344 (National Center for Advancing Translational Sciences (NCATS), 2010), this text covers inhibition for 64 molecules.

About 6,900 (2%) of roughly 340,000 compounds were called active. No stated cut-off is given here; in the data, active means inhibition above about 30%; inactive means below that, where a call was filed. Only a part is listed here, and it is no random draw. Entries without a call were filed so in the source.

The test concerns the target D(2) dopamine receptor (Homo sapiens) (UniProt P14416). Description: HTS Assay for Allosteric Antagonists of the Human D2 Dopamine Receptor: Primary Screen for Antagonists. Further: 0% is about no effect. The following applies: HEK293 TREx D2 cells, calcium flux, dopamine EC80; at 10 µM; stronger effect = higher value. An outline of the steps: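 Antagonism is scored as inhibition of an EC80 dopamine-evoked calcium signal in a force-coupled, tetracycline-inducible HEK293 T-REx D2 line, with compound present 180 s before agonist.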
UniProt P14416, sequence (P14416 whole entry, looked up): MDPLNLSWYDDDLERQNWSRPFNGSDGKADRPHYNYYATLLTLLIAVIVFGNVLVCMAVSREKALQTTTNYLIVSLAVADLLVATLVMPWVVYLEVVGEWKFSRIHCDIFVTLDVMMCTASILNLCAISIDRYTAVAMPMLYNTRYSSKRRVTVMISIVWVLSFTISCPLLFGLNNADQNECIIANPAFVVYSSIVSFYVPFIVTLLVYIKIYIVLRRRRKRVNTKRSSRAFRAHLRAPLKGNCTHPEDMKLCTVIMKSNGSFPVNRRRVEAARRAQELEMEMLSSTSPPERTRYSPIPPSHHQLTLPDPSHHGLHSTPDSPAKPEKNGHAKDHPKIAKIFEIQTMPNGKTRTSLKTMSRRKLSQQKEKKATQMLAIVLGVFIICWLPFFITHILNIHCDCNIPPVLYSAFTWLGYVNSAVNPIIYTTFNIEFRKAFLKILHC
In general terms: Calcium assays in cells follow changes in intracellular calcium, usually with a dye or a luminescent sensor.
For orientation: inhibition means the drop in the measured response relative to a control, in per cent. In the case of `COc1ccc(C)cc1NC(=O)Cc1ccc(NC(=O)N2CCCCc3ccccc32)cc1`, the inhibition amounted to 9.02%.

Take `Cc1ccc2nc(NCCc3ccc(Cl)cc3)c3nncn3c2c1`: the inhibition was determined as 14.9%.

Regarding `CC(C)c1ccc(Nc2c(-c3ccsc3)nc3ccc(Cl)cn23)cc1`, the inhibition was -4.6%.

Regarding `CC/C(=N\NC(N)=O)c1ccc(OC)c(OC)c1`, the inhibition was active: 38.5%.

For the molecule `COc1ccc(NC(=O)C2(c3ccc(NC(=O)c4ccc(C)cc4)cc3)CCCC2)cc1`, the inhibition was active: 34.2%.

As to `CCn1cc(C(=O)NCc2ccccc2Cl)c(=O)c2cc(S(=O)(=O)N3CCOCC3)ccc21`, the inhibition was found to be 13.9%.

Regarding `CCCCC(=O)Nc1cccc(-c2nc3ccccc3s2)c1`, the inhibition came to 8.24%.

`COc1ccc(CCNC(=O)C(=O)Nc2ccc(C)c(C)c2)cc1OC`: the inhibition came to 27.9%.

Regarding `Cc1cccc(-n2ccnc2SCC(=O)Nc2cc(C(F)(F)F)ccc2Cl)c1`, the inhibition is -20.7%.

Consider `CCCCN(C)CC(O)Cn1cc(/C=C/C(=O)c2ccc(OCC)cc2)c2ccccc21` (centres undefined), for which the inhibition was -2.1%.

Take `CCOC(=O)c1[nH]c(C)c(C(=O)NCCc2ccccc2)c1C`: the inhibition stood at 21%.

As to `CN(c1ccc(Cl)cc1)S(=O)(=O)c1nnc(NC(=O)c2ccco2)s1`, the inhibition is -28.2%.

For `CCc1ccc(NC(=O)c2cc(CN3CCOCC3)on2)cc1`, the inhibition stood at 4.52%.

With `CCOc1ccccc1NC(=O)CCS(=O)(=O)c1ccc(OC)cc1`, the inhibition turned out to be 2.6%.

On to `O=C(O)CCC(=O)CCC(=O)c1ccccc1`, for which the inhibition was active: 34.6%.

Consider `Nc1cc(C(F)(F)F)ccc1Nc1ccccc1`, for which the inhibition was active: 67.1%.

On to `O=C(CCn1c(=O)c2ccccc2n(Cc2ccc(Cl)cc2)c1=O)NCc1ccc2c(c1)OCO2`, for which the inhibition is -10.1%.

Take `Cc1ccc(CNC(=O)c2ccc(CSCc3c(F)cccc3Cl)o2)cc1`: the inhibition is 4.02%.

Take `CCOc1ccc(/C=C/c2nc(C#N)c(N3CCCCCC3)o2)cc1`: the inhibition worked out at 2.97%.

As to `Cc1cc(C)n2nc(CNS(=O)(=O)c3ccc(F)cc3)nc2n1`, the inhibition was 10.3%.

Take `COc1ccccc1NC(=O)N1CCOc2ccccc21`: the inhibition was found to be 2.81%.

With `COc1ccccc1NC(=O)Cn1c(=O)n(Cc2nc(C)no2)c(=O)c2cc3c(cc21)OCO3`, the inhibition amounted to 9.38%.

Consider `CN1CCc2c(sc(/N=C/c3cc(Cl)ccc3O)c2C#N)C1`, for which the inhibition is active: 83.3%.

For the molecule `CCCN(CCC)CCNC(=O)Cn1cnc2sc(C)c(S(=O)(=O)N3CCN(c4ccccc4OC)CC3)c2c1=O`, the inhibition was -10.8%.

`COC(=O)c1cc2oc3ccccc3c2n1CC(=O)Nc1ccc(C)cc1Cl`: the inhibition stood at 8.37%.

On to `CCn1c(C(=O)NCc2ccccc2)cc2sc(Cl)cc21`, for which the inhibition was -6.07%.

In the case of `COc1cccc(CNC(=O)c2ccc(CN3CC(=O)N4CCCCC4C3=O)cc2)c1` (centres undefined), the inhibition was 10.6%.

As for `O=C(NCc1ccc(F)cc1Cl)c1ccc(CSCc2ccccc2Cl)o1`, the inhibition was found to be 7.12%.

As to `CC(C)CCn1c(=O)c2sccc2n2c(CCCC(=O)Nc3ccc(F)c(Cl)c3)nnc12`, the inhibition is -2.76%.

With `Cc1ccc(NC(=O)c2cc(-c3cccs3)nc3ccccc23)c(C)c1`, the inhibition is -0.394%.

`Cc1ccc(N2CCN(C(=O)Nc3cn(CC(C)C)c(=O)c4ccccc34)CC2)c(C)c1`: the inhibition is -2.06%.

In the case of `Cc1cccc(N2CCN(C(=O)c3ccc4c(c3)N(Cc3cccc(Cl)c3)C(=O)c3ccccc3S4=O)CC2)c1C` (centres undefined), the inhibition came to 3.51%.

On to `Cc1ccc(-c2nc(SCC(=O)Nc3cc(C)on3)c3c(=O)n(C)c(=O)n(C)c3n2)cc1`, for which the inhibition amounted to 14.6%.

Take `O=C(CC(=O)Nc1ccccc1F)Nc1ccc2nc3n(c(=O)c2c1)CCCCC3`: the inhibition turned out to be 9.4%.

With `CCOC(=O)C1=CCN(Cc2ccccc2)CC1`, the inhibition is active: 101%.

Consider `COc1ccccc1NC(=O)c1c(NC(=O)c2cccs2)sc2c1CCC(C(C)(C)C)C2` (centres undefined), for which the inhibition was -16.6%.

As for `CCCCCNc1nc2c(-c3ccccc3)nnn2c2ccccc12`, the inhibition is -10.9%.

As for `CCc1ccc(OC(=O)c2sc3ncn(Cc4cccc(F)c4)c(=O)c3c2C)cc1`, the inhibition was -9.01%.

As to `Cc1nc(=O)c(-c2ccccc2)c(C)n1-c1cccc(C(=O)O)c1`, the inhibition was active: 31.3%.

As to `CCCOc1ccc(Cn2c(=O)sc3ccccc32)cc1`, the inhibition is -3.63%.

Turning to `CCc1ccccc1NC(=O)COC(=O)c1cn(CC)c2nc(C)ccc2c1=O`, the inhibition worked out at 1.89%.

On to `CCCCOC(=O)c1ccc(Nc2nc3ccc(C)cc3n3cnnc23)cc1`, for which the inhibition is -10.6%.

Regarding `O=C(Nc1cc(Cl)ccc1O)c1cc2nc(-c3ccc4c(c3)OCO4)cc(C(F)(F)F)n2n1`, the inhibition amounted to 10.6%.

For the molecule `Cc1ccc(CCNC(=O)C2CCCN(S(=O)(=O)c3ccc4c(c3)oc(=O)n4C)C2)cc1` (centres undefined), the inhibition was -11.9%.

For the molecule `O=C(COc1ccc(F)cc1)OCc1cc(=O)n2nc(C3CC3)sc2n1`, the inhibition amounted to 2.71%.

In the case of `CCc1ccc(C(=O)c2cn(Cc3ccccc3)c3cc(OC)c(OC)cc3c2=O)cc1`, the inhibition was -15.1%.

For the molecule `CCc1ccc(-n2nc(C)c3c(C)cc(=O)n(CC(=O)N(CC)Cc4ccccc4)c32)cc1`, the inhibition was 6.23%.

Take `Oc1c(C(c2ccc(Cl)cc2Cl)N2CCCC2)sc2nc(-c3ccco3)nn12` (centres undefined): the inhibition is -12.5%.

In the case of `CCOc1ccc(C(CC(=O)Nc2ccc(C(=O)OC)cc2)N2Cc3ccccc3C2=O)cc1OC` (centres undefined), the inhibition came out at 5.28%.

In the case of `CC(C)(C)c1ccc(OCc2cc(=O)n3c4c(sc3n2)CCCC4)cc1`, the inhibition was determined as 6.64%.

For the molecule `COc1cccc(NC(=O)c2oc3ccc(S(=O)(=O)N4CCC5(CC4)OCCO5)cc3c2C)c1`, the inhibition came to 3.02%.

Take `COc1ccc(-c2noc(CSc3nnc(C)n3-c3ccc(C)cc3)n2)cc1`: the inhibition is -8.25%.

With `CN(CCOc1ccc(Cl)cc1)Cc1cccc(S(=O)(=O)N(C)C)c1`, the inhibition is active: 48.3%.

In the case of `COc1ccc(N2CC(C(=O)Nc3ccccc3-c3nc(-c4ccc(C)cc4)no3)CC2=O)cc1` (centres undefined), the inhibition is -2.01%.

As to `CCn1cnc2cc(NC(=O)c3ccc(C)cc3)ccc21`, the inhibition was active: 31.5%.

With `CCCSc1nc2c(c(=O)[nH]1)C(c1ccc(O)c(OCC)c1)CC(=O)N2` (centres undefined), the inhibition was found to be 11%.

For the molecule `COc1ccc(C(=O)NCCc2nc3ccccc3[nH]2)cc1`, the inhibition was found to be 1.01%.

Regarding `Cn1c(=O)c2c(nc(NCc3ccccc3)n2Cc2ccc(Cl)c(Cl)c2)n(C)c1=O`, the inhibition was determined as 1.03%.

On to `Cc1cc(C(C)(C)C)cc(C)c1CC1=NCCN1`, for which the inhibition was active: 50.1%.

In the case of `Cc1ccccc1NC(=O)CSc1nc2ccc(NC(=O)c3ccco3)cc2s1`, the inhibition was determined as 18.1%.

In the case of `Clc1ccc(-c2noc3ncnc(N4CCCCC4)c23)cc1`, the inhibition is -0.725%.

Take `CCOc1cc(Cl)c(S(=O)(=O)n2cc(C)nc2CC)cc1Cl`: the inhibition was -5.09%.

`COc1ccc(C2CC(c3ccccc3)=NN2C(=O)COC(=O)c2cc(S(=O)(=O)N3CCOCC3)ccc2Cl)cc1` (centres undefined): the inhibition is active: 32.1%.

Take `CCN(CCCCOC(=O)c1ccc(OC)c(OC)c1)C(C)Cc1ccc(OC)cc1` (centres undefined): the inhibition was active: 43.6%.
